# Out of some 220,000 compounds screened, about 16,000 (7.3%) were called active. The inconclusive results got no clear call from the source; some entries with a clear call stand among them for comparison. The call rests on the fitted dose curve; in most records, active means well fitted inhibition curve with a large enough effect (not every such curve was filed as active); inconclusive means small, poorly fitted or top-dose-only effect, or another doubt; inactive means no such curve, though single readings can be large or run the other way. Potencies of inconclusive entries are left out as doubtful fits.
# Biological target: Aldehyde dehydrogenase 1A1 (Homo sapiens) (UniProt P00352)
# Sequence of UniProt P00352 (P00352 whole entry, looked up): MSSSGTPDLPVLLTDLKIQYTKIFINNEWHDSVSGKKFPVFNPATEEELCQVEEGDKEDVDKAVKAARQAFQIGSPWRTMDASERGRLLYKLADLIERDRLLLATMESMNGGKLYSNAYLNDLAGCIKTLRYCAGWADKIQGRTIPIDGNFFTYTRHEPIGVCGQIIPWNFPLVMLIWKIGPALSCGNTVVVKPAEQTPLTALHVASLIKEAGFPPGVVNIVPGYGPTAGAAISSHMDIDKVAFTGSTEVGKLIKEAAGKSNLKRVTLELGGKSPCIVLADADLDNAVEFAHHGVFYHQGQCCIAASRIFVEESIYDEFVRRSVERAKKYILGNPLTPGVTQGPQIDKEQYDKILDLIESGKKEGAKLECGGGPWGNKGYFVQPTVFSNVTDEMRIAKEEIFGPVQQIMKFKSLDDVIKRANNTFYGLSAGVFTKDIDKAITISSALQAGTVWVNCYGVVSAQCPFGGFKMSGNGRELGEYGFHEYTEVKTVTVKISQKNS
# Assay: qHTS Assay for Inhibitors of Aldehyde Dehydrogenase 1 (ALDH1A1)
# Conditions: Purified ALDH1A1, NADH fluorescence, propionaldehyde substrate; series mostly up to 75.3 µM
# Potency means the concentration at half of the fitted maximal effect; tags describe the fitted curve by direction and shape.
row,Compound,Potency
1,COC(=O)c1c(NS(=O)(=O)Cc2ccccc2)sc2c1CCCC2,"inconclusive [inhibitor, partial curve]"
2,Cc1ccc(N=CC=C2OC(C)(C)C(C)(C)O2)c(C)c1,"inconclusive [inhibitor, partial curve]"
3,CCOc1ccc(C(=O)NCC(=O)OCC(=O)N2C(C)CCCC2C)cc1 (configuration not stated),"inconclusive [inhibitor, single point]"
4,Nn1c(Cc2ccccc2F)nnc1SCC(=O)N1CC(=O)Nc2ccccc21,inactive
5,O=c1[nH]ccc2c(O)cccc12,"inconclusive [inhibitor, single point]"
6,COc1cccc(-n2c(SCc3cc(=O)oc4cc(O)c(O)cc34)nc3ccccc3c2=O)c1,"inconclusive [inhibitor, partial curve, poor fit]"
7,COc1ccc(Cn2nnnc2C(c2ccccc2)N2CCN(C3CCCC3)CC2)cc1 (configuration not stated),active: 8.91 µM
8,Cc1ccc(-c2nc(CS(=O)CC(=O)NCCN(CC(C)C)CC(C)C)c(C)o2)cc1 (configuration not stated),"inconclusive [inhibitor, single point]"
9,COc1ccccc1-n1cnnc1SC(C)C(=O)Nc1cccc([N+](=O)[O-])c1 (configuration not stated),"inconclusive [inhibitor, single point]"
10,CC(C)(C)c1ccc(-n2nc(C#N)c(Cl)cc2=O)cc1,active: 12.6 µM
11,O=c1c(-c2ccccc2)nc2cncnc2n1Cc1ccccc1,"inconclusive [inhibitor, single point]"
12,O=C(O)CSCc1ccc(Cl)cc1,inactive
13,Cc1cc(C)c(C#N)c(Sc2ccccc2N)n1,active: 25.1 µM
14,Cc1cc(NCCCN2CCOCC2)n2nc(C)c(-c3ccc(F)cc3)c2n1,"inconclusive [inhibitor, single point]"
15,CC1Cc2ccccc2N1C(=O)CO/N=C/c1ccccc1OC(F)F (configuration not stated),"inconclusive [inhibitor, single point]"
16,CC(=O)Nc1ccc(NC(=O)CN2CCN(c3cccc(C(F)(F)F)c3)CC2)cc1,inactive
17,COc1ccc(CC(=O)OCC(=O)Nc2ccc(Cl)cn2)cc1,"inconclusive [inhibitor, full curve, poor fit]"
18,CC1COC(=O)C(NNc2ccc(Cl)c(Cl)c2)=N1 (configuration not stated),inactive
19,O=C1CC(c2ccc3c(c2)OCO3)c2ccc(O)cc2O1 (configuration not stated),inactive
20,N#C/C(=C\c1ccc([N+](=O)[O-])o1)C(=O)Nc1ccc(F)cc1,active: 11.2 µM
21,CCc1cccc(OCCCCNCCOC)c1,"inconclusive [inhibitor, single point]"
22,Cc1cc(C)c(C(=O)N2CCCC(CNC(=O)C3(c4ccc(Cl)cc4)CC3)C2)c(=O)[nH]1 (configuration not stated),inactive
23,CC(C)=C1Cc2ccccc2C1=O,"inconclusive [inhibitor, single point]"
24,CCOC(=O)c1c(CN2CCCCC2C)oc2ccc(OC)cc12 (configuration not stated),"inconclusive [inhibitor, single point]"

row,Compound,Potency
1,O=C(Nc1ccc(F)cc1)C1C(c2ccccc2)C1(Cl)Cl (configuration not stated),inactive
2,N/C(=N\OC(=O)/C=C/c1ccccc1Cl)c1ccccn1,"inconclusive [inhibitor, single point]"
3,CCCCOC(=O)C1[C@H]2C(=O)N(Cc3cccs3)C[C@]23C=C[C@H]1O3 (some centres not stated),"inconclusive [inhibitor, single point]"
4,CC1=C(C(=O)NC2CCC(C)CC2)C2(CCC(C)CC2)OC1=O (configuration not stated),inactive
5,CCOC(=O)C(=O)NC(C)CCc1ccccc1 (configuration not stated),inactive
6,O=C(Cc1cccs1)Nc1cccc([N+](=O)[O-])c1,"inconclusive [inhibitor, single point]"
7,CCN1C(=O)/C(=C/c2cnn(C)c2C)SC1=S,"inconclusive [inhibitor, full curve]"
8,CCN(CC)CCCC(C)n1c(-c2ccccc2)nc2c(N(CCOC)CCOC)nc(C)nc21 (configuration not stated),"inconclusive [inhibitor, single point]"
9,COc1cc(NC(=S)NC(=O)c2ccccc2F)ccc1NC(=O)c1ccco1,active: 31.6 µM
10,N=c1c2c(n(Cc3ccc(F)cc3)c3c1CCC3)CCC2,"inconclusive [inhibitor, partial curve, poor fit]"
11,Cc1ccc(-c2csc3nc(CN(C)Cc4ccccc4)[nH]c(=O)c23)cc1,"inconclusive [inhibitor, partial curve, poor fit]"
12,CCOc1ccccc1OCCOCCN1CC(C)OC(C)C1 (configuration not stated),inactive
13,COc1ccc(C2CC(c3ccccc3)=NN2C(=O)COC(=O)c2cc(S(=O)(=O)N3CCOCC3)ccc2Cl)cc1 (configuration not stated),"inconclusive [inhibitor, single point]"
14,COC(=O)CN1C(=O)N/C(=C/c2ccccc2OC)C1=O,"inconclusive [inhibitor, single point]"
15,CCN(Cc1nc2ccccc2c(=O)[nH]1)Cc1cc(=O)oc2cc(OC)ccc12,"inconclusive [inhibitor, single point]"
16,Cc1ccc2occ(CN3CCN(Cc4ccccc4)CC3)c(=O)c2c1,"inconclusive [inhibitor, single point]"
17,Cc1cccnc1NC(=O)CCCN1C(=O)c2ccccc2C1=O,inactive
18,Cc1ccc(NC(=O)c2cc(N3C(=O)C4CCCCC4C3=O)ccc2N2CCOCC2)cc1 (configuration not stated),active: 22.4 µM
19,CCOc1ccc(OCCn2ccnc2)cc1,"inconclusive [inhibitor, single point]"
20,COc1cccc(CNC(=O)C2CCCN(c3nc4ccccc4o3)C2)c1 (configuration not stated),"inconclusive [inhibitor, single point]"
21,COc1ccc(S(=O)(=O)NCCSCc2ccco2)cc1,active: 2.82 µM
22,CC(C)(C)c1cc(CN2CCC(O)CC2)cc(C(C)(C)C)c1O,"inconclusive [inhibitor, single point]"
23,CC(=O)OC(/C(O)=C(\C#N)c1nc2ccccc2[nH]1)c1ccccc1 (configuration not stated),"inconclusive [inhibitor, partial curve]"

# Source: PubChem BioAssay AID1030 (National Center for Advancing Translational Sciences (NCATS), 2008)
